Source: PMC7758049
Where a chain is given by its changes, count along the chain named. These are yes or no findings as the source states them, for the method shown. Sequences can lack the tags named with a protein.

Legend:
[1] = target: T1, GAL4BD-c-myc-DHR1-H593Y, R596C, E831K (S. cerevisiae) (UniProt Q04217); test: two-hybrid; AD-HA-Utp14 with BD-myc-Dhr1 (wild type or mutant); growth on SD-Leu-Trp-His- with 10 mM 3AT
T1 sequence: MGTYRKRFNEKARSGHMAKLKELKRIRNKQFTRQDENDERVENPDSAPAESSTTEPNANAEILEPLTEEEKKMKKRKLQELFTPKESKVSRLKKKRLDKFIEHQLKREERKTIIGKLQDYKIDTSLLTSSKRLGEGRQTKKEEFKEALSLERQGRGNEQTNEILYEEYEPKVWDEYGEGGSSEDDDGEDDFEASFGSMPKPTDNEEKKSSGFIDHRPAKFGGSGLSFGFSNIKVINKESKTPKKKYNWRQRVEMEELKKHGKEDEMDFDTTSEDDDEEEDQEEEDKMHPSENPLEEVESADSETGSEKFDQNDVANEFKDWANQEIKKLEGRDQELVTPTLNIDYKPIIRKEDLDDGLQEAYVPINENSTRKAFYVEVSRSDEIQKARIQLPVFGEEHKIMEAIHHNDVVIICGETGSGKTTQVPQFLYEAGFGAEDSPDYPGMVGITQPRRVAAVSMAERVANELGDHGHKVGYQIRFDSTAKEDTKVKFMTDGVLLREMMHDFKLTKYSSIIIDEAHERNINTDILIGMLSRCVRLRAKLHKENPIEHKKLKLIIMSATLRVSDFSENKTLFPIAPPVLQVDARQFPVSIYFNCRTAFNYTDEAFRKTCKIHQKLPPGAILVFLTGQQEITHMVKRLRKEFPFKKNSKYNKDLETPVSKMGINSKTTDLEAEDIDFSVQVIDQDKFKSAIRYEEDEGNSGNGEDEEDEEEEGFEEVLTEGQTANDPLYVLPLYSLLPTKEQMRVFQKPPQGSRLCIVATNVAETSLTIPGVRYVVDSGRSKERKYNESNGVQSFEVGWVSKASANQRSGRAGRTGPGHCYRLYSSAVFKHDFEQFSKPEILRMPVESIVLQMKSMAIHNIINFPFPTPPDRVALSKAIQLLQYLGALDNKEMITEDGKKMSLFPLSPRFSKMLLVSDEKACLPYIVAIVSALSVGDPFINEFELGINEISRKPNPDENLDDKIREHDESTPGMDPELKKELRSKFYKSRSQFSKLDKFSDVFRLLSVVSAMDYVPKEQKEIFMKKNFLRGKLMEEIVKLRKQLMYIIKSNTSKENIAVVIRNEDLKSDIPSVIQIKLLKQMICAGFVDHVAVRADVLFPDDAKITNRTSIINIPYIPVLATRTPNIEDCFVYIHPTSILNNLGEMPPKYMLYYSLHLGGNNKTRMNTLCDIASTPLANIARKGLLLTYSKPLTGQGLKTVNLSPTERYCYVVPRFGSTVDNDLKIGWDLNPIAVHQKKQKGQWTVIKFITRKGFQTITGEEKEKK

[2] = target: T2, GAL4BD-c-myc-DHR1-R563M, D566Y, E831K, F837L (S. cerevisiae) (UniProt Q04217); test: as above
T2 sequence: T1 sequence with R563M, D566Y, Y593H, C596R, F837L

B1: AD-HA-Utp14 (protein, UniProt Q04500 1-899)
chain: MAKKKSKSRSKSSRRVLDALQLAEREINGEFDNSSDNDKRHDARRNGTVVNLLKRSKGDTNSDEDDIDSESFEDEELNSDEALGSDDDYDILNSKFSQTIRDKKENANYQEEEDEGGYTSIDEEDLMPLSQVWDMDEKTAQSNGNDDEDASPQLKLQDTDISSESSSSEESESESEDDEEEEDPFDEISEDEEDIELNTITSKLIDETKSKAPKRLDTYGSGEANEYVLPSANAASGASGKLSLTDMMNVIDDRQVIENANLLKGKSSTYEVPLPQRIQQRHDRKAAYEISRQEVSKWNDIVQQNRRADHLIFPLNKPTEHNHASAFTRTQDVPQTELQEKVDQVLQESNLANPEKDSKFEELSTAKMTPEEMRKRTTEMRLMRELMFREERKARRLKKIKSKTYRKIKKKELMKNRELAAVSSDEDNEDHDIARAKERMTLKHKTNSKWAKDMIKHGMTNDAETREEMEEMLRQGERLKAKMLDRNSDDEEDGRVQTLSDVENEEKENIDSEALKSKLGKTGVMNMAFMKNGEAREREANKETLRQLRAVENGDDIKLFESDEEETNGENIQINKGRRIYTPGSLESNKDMNELNDHTRKENKVDESRSLENRLRAKNSGQSKNARTNAEGAIIVEEESDGEPLQDGQNNQQDEEAKDVNPWLANESDEEHTVKKQSSKVNVIDKDSSKNVKAMNKMEKAELKQKKKKKGKSNDDEDLLLTADDSTRLKIVDPYGGSDDEQGDNVFMFKQQDVIAEAFAGDDVVAEFQEEKKRVIDDEDDKEVDTTLPGWGEWAGAGSKPKNKKRKFIKKVKGVVNKDKRRDKNLQNVIINEKVNKKNLKYQSSAVPFPFENREQYERSLRMPIGQEWTSRASHQELIKPRIMTKPGQVIDPLKAPFK
For B1, which binding [1] is on record?
The binding was “no binding”.

What about the binding [2] of the same binder?
Its binding is “no binding”.
